Assay results reported in the supplement of paper PMC12217912.
The list shows a part of the results. Sequences were assembled here from the parent chain. Values near 0.05 are background.

B1: TEV protease; numbered along this chain (parent)
chain: MGESLFKGPRDYNPISSSICHLTNESDGHTTSLYGIGFGPFIITNKHLFRRNNGTLVVQSLHGVFKVKDTTTLQQHLVDGRDMIIIRMPKDFPPFPQKLKFREPQREERICLVTTNFQTKSMSSMVSDTSCTFPSGDGIFWKHWIQTKDGQCGSPLVSTRDGFIVGIHSASNFTNTNNYFTSVPKNFMELLTNQEAQQWVSGWRLNADSVLWGGHKVFMVKPEEPFQPVKEATQL

Variants of: B1
Experiment: raw area under fraction-flipped curve 0-4 h after induction (AUC4h, not background-subtracted), DNA-recorder readout of cleavage of the substrate (dimensionless); higher = more cleavage of the substrate by the protease variant
Settings: temperature: 34 °C; time window: 0-4 h after rhamnose induction
Method: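 In vivo DNA recorder in E. coli TOP10(DE3) ΔrhaA at 34 °C. Each TEVp single-site mutant (parent TEVp 0) is paired with a single-site variant of the 7-mer TEVs (canonical ENLYFQ|S). The substrate sits between flexible linkers in a Bxb1-sfGFP-TEVs-SsrA fusion, so cleavage stabilises Bxb1 and speeds flipping of a recombination array, read by NGS. The value is the raw area under the fraction-flipped curve over 0-4 h after rhamnose induction (AUC4h), with ≥20 reads per time point. It is not background-subtracted; inactive controls average about 0.047.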
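Note: Bxb1 expression induced with 0.2% (w/v) L-rhamnose at OD600 near 0.5, cultures sampled hourly, flipped fraction per protease–substrate barcode pair counted by paired-end Illumina sequencing.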

Variant | area with substrate EALYFQS | area with substrate EDLYFQS | area with substrate EELYFQS | area with substrate EILYFQS | area with substrate ELLYFQS | area with substrate EMLYFQS | area with substrate EQLYFQS | area with substrate ERLYFQS | area with substrate ESLYFQS | area with substrate ETLYFQS | area with substrate EVLYFQS | area with substrate EHLYFQS | area with substrate EYLYFQS | area with substrate ECLYFQS | area with substrate EFLYFQS | area with substrate EGLYFQS | area with substrate EKLYFQS | area with substrate EWLYFQS | area with substrate EPLYFQS
P14K | 0.0887 | 0.128 | 0.111 | 0.0753 | 0.0821 | 0.0874 | 0.113 | 0.0691 | 0.0844 | 0.0928 | 0.0819 |  |  |  |  |  |  |  | 
P14H | 0.134 | 0.133 |  | 0.128 | 0.1 | 0.0857 |  | 0.0925 | 0.113 |  | 0.1 | 0.161 | 0.117 |  |  |  |  |  | 
P14E | 0.0875 |  | 0.141 | 0.0955 | 0.0621 | 0.122 | 0.0959 |  | 0.0898 |  | 0.108 | 0.082 |  | 0.0879 | 0.122 | 0.124 | 0.0697 | 0.0822 | 
T23A | 0.115 |  | 0.101 | 0.111 | 0.0861 | 0.0987 | 0.105 | 0.106 | 0.0929 |  | 0.0845 |  | 0.0864 | 0.101 |  | 0.0731 |  | 0.0973 | 
T23K | 0.111 | 0.116 |  | 0.0845 | 0.0677 |  | 0.085 | 0.115 | 0.0912 | 0.137 | 0.072 | 0.1 |  | 0.081 |  |  | 0.0767 | 0.078 | 0.0819
T23E | 0.0927 |  | 0.117 | 0.0904 | 0.0625 | 0.0966 | 0.107 | 0.0881 | 0.101 |  | 0.0976 | 0.125 | 0.103 | 0.0875 |  | 0.0874 | 0.122 | 0.115 | 0.0715
G28Q | 0.101 |  | 0.0939 | 0.0646 | 0.0836 |  | 0.0988 | 0.0954 |  | 0.0995 | 0.0704 | 0.0892 | 0.101 |  | 0.093 |  | 0.0787 |  | 
S18Q | 0.138 |  |  | 0.0463 | 0.117 | 0.132 | 0.145 |  |  | 0.149 | 0.105 |  | 0.128 | 0.125 | 0.108 | 0.115 | 0.0922 |  | 
L33R | 0.0582 |  | 0.0672 | 0.052 | 0.0508 |  | 0.0293 | 0.0674 | 0.05 | 0.0638 | 0.0584 | 0.0676 | 0.0665 | 0.042 | 0.0588 |  |  | 0.063 | 0.0564
L33H | 0.0652 |  | 0.085 | 0.0503 | 0.0574 | 0.0776 | 0.0724 | 0.0719 | 0.0642 | 0.0731 | 0.0753 | 0.0653 | 0.0974 | 0.0677 |  | 0.0569 | 0.053 |  | 0.0893
L33Y | 0.052 | 0.0589 |  | 0.0669 | 0.0603 | 0.0475 | 0.0704 | 0.0629 | 0.0621 | 0.062 | 0.0601 | 0.0617 |  | 0.0565 |  |  | 0.0563 |  | 0.0546
P9C | 0.0876 | 0.121 | 0.128 | 0.0784 |  | 0.121 | 0.122 |  | 0.101 |  |  |  |  |  | 0.0911 | 0.0997 |  | 0.12 | 0.105
P9R | 0.15 | 0.168 |  |  |  | 0.175 | 0.125 | 0.156 | 0.165 |  | 0.116 |  | 0.147 | 0.135 |  | 0.102 |  |  | 
E3F | 0.127 |  | 0.175 | 0.123 | 0.0968 |  | 0.206 | 0.126 | 0.152 | 0.148 | 0.113 | 0.123 |  |  |  | 0.108 |  | 0.101 | 0.169
E3C | 0.14 |  |  | 0.108 |  | 0.128 | 0.131 | 0.128 | 0.0988 |  | 0.162 | 0.109 |  |  |  | 0.108 | 0.121 |  | 0.166
E3R | 0.111 |  |  | 0.0941 | 0.0712 |  | 0.111 | 0.0888 | 0.0692 |  |  | 0.0822 | 0.0703 | 0.0903 | 0.0839 |  | 0.0837 | 0.0042 | 
I19W | 0.0689 | 0.0215 | 0.048 | 0.0523 |  |  | 0.0601 | 0.0505 | 0.0586 |  | 0.0348 | 0.0535 | 0.061 |  |  | 0.0553 | 0.0619 | 0.0531 | 
C20L | 0.115 | 0.13 | 0.118 | 0.0835 |  | 0.119 | 0.0945 | 0.0894 | 0.0931 | 0.0915 | 0.0752 |  | 0.0876 |  | 0.0886 | 0.105 | 0.0825 | 0.0991 | 0.132
C20W | 0.0386 |  | 0.0529 | 0.0548 | 0.0406 | 0.0542 | 0.0486 | 0.0504 | 0.0581 |  |  | 0.0484 |  | 0.0395 | 0.0167 | 0.0228 | 0.0614 | 0.0456 | 0.0371
H29I | 0.117 | 0.127 |  |  | 0.0703 | 0.109 |  |  | 0.105 | 0.119 | 0.138 | 0.0086 | 0.0973 |  | 0.104 | 0.099 | 0.125 | 0.0874 | 
H29M | 0.102 |  | 0.136 | 0.102 | 0.109 | 0.137 | 0.121 | 0.11 | 0.11 | 0.126 | 0.102 | 0.126 |  | 0.107 | 0.083 | 0.101 | 0.0997 | 0.113 | 0.107
H29P | 0.112 |  | 0.105 | 0.0796 | 0.0953 | 0.101 | 0.102 |  | 0.0868 | 0.0812 | 0.0845 | 0.102 |  | 0.082 |  | 0.0662 | 0.0869 | 0.0873 | 0.101
H29T | 0.111 |  | 0.145 | 0.0789 |  |  |  |  | 0.127 |  | 0.111 |  |  | 0.0887 |  | 0.0843 | 0.116 |  | 
I15P | 0.066 |  |  |  |  |  | 0.0719 | 0.0886 | 0.0798 | 0.094 | 0.0675 | 0.076 |  | 0.0542 | 0.102 |  | 0.0838 | 0.0687 | 0.0934
I15M | 0.104 |  | 0.119 | 0.114 | 0.083 | 0.106 |  | 0.108 | 0.0856 |  | 0.0808 | 0.104 | 0.0839 | 0.0923 | 0.0923 | 0.0756 |  |  | 
D27G | 0.127 |  |  |  |  | 0.119 | 0.0984 | 0.0821 | 0.0963 | 0.126 | 0.0906 |  |  |  |  | 0.131 | 0.0903 |  | 
D27S | 0.106 |  | 0.0705 |  | 0.0972 | 0.0971 | 0.097 |  | 0.101 |  | 0.113 | 0.105 | 0.0779 | 0.112 |  | 0.0962 | 0.0925 | 0.0902 | 0.0983
